Drawing on the antibiotic and cytotoxicity screens of Wong et al. (2023), this text covers cytotoxicity call and growth inhibition call for 26 compounds.

Some of the results follow.

One assay deals with HSkMC. Briefly: cytotoxicity call (relative viability < 0.9). Particulars: 10 µM.
A further assay concerns HepG2. Briefly: cytotoxicity call (relative viability < 0.9). Particulars: 10 µM.
The test system of another assay is S. aureus RN4220. Briefly: growth inhibition call (relative growth <= 0.2). Particulars: 50 µM.

On to `C[C@@H]1CN([C@H](C)CO)C(=O)c2cccc(NC(=O)C3CCCCC3)c2O[C@@H]1CN(C)Cc1ccc(C(F)(F)F)cc1`, for which the cytotoxicity call in the assay on HSkMC and in the assay on HepG2 was “inactive” each time. Moreover, in the assay with S. aureus RN4220, the growth inhibition call was “inactive”.

On to `Cc1noc(C)c1NC(=O)Nc1ccc2c(c1)C(=O)N([C@@H](C)CO)C[C@@H](C)[C@@H](CN(C)S(=O)(=O)c1ccc(F)cc1)OCCCC[C@H](C)O2`, for which the cytotoxicity call in the assay on HSkMC and in the assay on HepG2 was “inactive” throughout. The growth inhibition call with S. aureus RN4220 was “inactive”.

Consider `CC12C=CC(=O)C=C1CCC1C2C(O)CC2(C)C1CCC2(O)C(=O)COP(=O)([O-])[O-].[Na+].[Na+]` (stereo not drawn), for which the cytotoxicity call in the assay with HSkMC and in the assay with HepG2 was “inactive” throughout. In addition, the growth inhibition call with S. aureus RN4220 was “inactive”.

Regarding `CCCNC(=O)N(C)C[C@@H]1Oc2ncc(-c3ccc(C(=O)N(C)C)cc3)cc2C(=O)N([C@H](C)CO)C[C@H]1C`, the cytotoxicity call in the assay on HSkMC and in the assay on HepG2 was “inactive” in each case. Moreover, in the assay with S. aureus RN4220, the growth inhibition call was “inactive”.

As to `COc1ccc([Si](C)(C)[C@H]2[C@H](CC(=O)N3Cc4ccccc4C[C@H]3CO)O[C@@]3(C(=O)N(Cc4cccc(I)c4)c4ccccc43)[C@@H]2C)cc1`, the cytotoxicity call in the assay on HSkMC and in the assay with HepG2 was “inactive” throughout. The growth inhibition call with S. aureus RN4220 is “inactive”.

Consider `C[C@H](CO)N1C[C@H](C)[C@H](CN(C)Cc2ccc(C(F)(F)F)cc2)Oc2ccc(NC(=O)NC3CCCCC3)cc2C1=O`, for which the cytotoxicity call in the assay with HSkMC and with HepG2 was “inactive” each time. Besides, in the assay with S. aureus RN4220, the growth inhibition call is “inactive”.

With `CCOC(=O)c1ccc(OCCN2C[C@H](O)[C@@H](O)[C@H](O)[C@H]2CO)cc1`, the cytotoxicity call in the assay with HSkMC and in the assay with HepG2 was “inactive” each time. In addition, in the assay on S. aureus RN4220, the growth inhibition call was “inactive”.

Consider `C[C@@H]1CN([C@@H](C)CO)C(=O)c2cc(NC(=O)Cc3ccccc3)ccc2O[C@H]1CN(C)Cc1ccc(C(=O)Nc2ccccc2N)cc1`, for which the cytotoxicity call with HSkMC and with HepG2 was “inactive” throughout. The growth inhibition call in the assay on S. aureus RN4220 is “inactive”.

Consider `COc1ccc(NC(=O)Nc2ccc3c(c2)C(=O)N([C@@H](C)CO)C[C@@H](C)[C@@H](CN(C)S(=O)(=O)c2ccccc2)OCCCC[C@@H](C)O3)cc1`, for which the cytotoxicity call in the assay on HSkMC and in the assay on HepG2 was “inactive” each time. Besides, the growth inhibition call in the assay with S. aureus RN4220 is “inactive”.

On to `COc1ccc(S(=O)(=O)N(C)C[C@H]2OCCCC[C@H](C)Oc3ccc(NC(=O)Nc4ccc5c(c4)OCO5)cc3C(=O)N([C@H](C)CO)C[C@@H]2C)cc1`, for which the cytotoxicity call with HSkMC and in the assay on HepG2 was “inactive” throughout. Moreover, the growth inhibition call with S. aureus RN4220 was “inactive”.

With `COc1ccc2c3c(n(c2c1)C)[C@@H](CO)N(CC1CCCCC1)C[C@]13CCN(CC1)Cc1nccs1`, the cytotoxicity call with HSkMC and in the assay with HepG2 was “inactive” throughout. Also, the growth inhibition call with S. aureus RN4220 is “inactive”.

`CN1C(=O)c2cc(NC(=O)c3cscn3)ccc2OC[C@H]2O[C@H](CC(=O)N3CCOCC3)CC[C@@H]21`: the cytotoxicity call in the assay on HSkMC and in the assay with HepG2 was “inactive” throughout. For the same compound, the growth inhibition call in the assay with S. aureus RN4220 is “inactive”.

Take `C[C@H]1CN([C@@H](C)CO)C(=O)c2cc(NC(=O)CCCN(C)C)ccc2O[C@H]1CN(C)C(=O)NC1CCCCC1`: the cytotoxicity call with HSkMC and in the assay with HepG2 was “inactive” throughout. Besides, in the assay with S. aureus RN4220, the growth inhibition call is “inactive”.

With `C[C@H]1CN([C@@H](C)CO)C(=O)CCCn2nncc2CO[C@H]1CN(C)Cc1cccc2c1OCCCO2`, the cytotoxicity call in the assay on HSkMC and in the assay on HepG2 was “inactive” throughout. The growth inhibition call in the assay on S. aureus RN4220 is “inactive”.

For `Cc1ccc(OCc2nnn(CC(=O)NS(=O)(=O)c3c(C)nn(C)c3Cl)c2-c2ccccc2)cc1`, the cytotoxicity call with HSkMC and in the assay with HepG2 was “inactive” throughout. The growth inhibition call in the assay with S. aureus RN4220 was “inactive”.

Turning to `C[C@@H]1CCCCO[C@H](CN(C)C(=O)C2CCCCC2)[C@H](C)CN([C@H](C)CO)C(=O)c2cc(NC(=O)Nc3cccc4ccccc34)ccc2O1`, the cytotoxicity call in the assay on HSkMC and in the assay with HepG2 was “inactive” throughout. In addition, in the assay on S. aureus RN4220, the growth inhibition call was “inactive”.

With `C[C@@H]1CN([C@H](C)CO)S(=O)(=O)c2ccc(C#Cc3ccc(F)cc3)cc2O[C@H]1CN(C)C(=O)CN(C)C`, in the assay on HSkMC, the cytotoxicity call is “inactive”. Also, the cytotoxicity call in the assay on HepG2 was “active”. In addition, in the assay with S. aureus RN4220, the growth inhibition call was “inactive”.

As to `C[C@H]1CN([C@@H](C)CO)C(=O)Cc2cc(NC(=O)CCC(F)(F)F)ccc2O[C@H]1CN(C)Cc1ccc(C(=O)Nc2ccccc2N)cc1`, the cytotoxicity call in the assay with HSkMC was “inactive”. Also, in the assay with HepG2, the cytotoxicity call was “active”. The growth inhibition call in the assay on S. aureus RN4220 is “inactive”.

For the compound `C[C@@H]1CN([C@H](C)CO)S(=O)(=O)c2ccc(C#CC3CC3)cc2O[C@H]1CN(C)C(=O)c1cccc(F)c1`, the cytotoxicity call in the assay on HSkMC and in the assay on HepG2 was “inactive” throughout. Further, in the assay with S. aureus RN4220, the growth inhibition call was “inactive”.

For `O=c1[nH]c(=O)n(C2CC(O)C(CO)O2)cc1I` (stereo not drawn), the cytotoxicity call with HSkMC and with HepG2 was “inactive” in each case. The growth inhibition call with S. aureus RN4220 was “inactive”.

As to `C[C@@H]1CN([C@H](C)CO)C(=O)c2cc(NC(=O)Nc3ccc(F)cc3)ccc2O[C@@H](C)CCCCO[C@@H]1CN(C)C(=O)CCCN(C)C`, the cytotoxicity call in the assay on HSkMC and in the assay on HepG2 was “inactive” in each case. The growth inhibition call in the assay on S. aureus RN4220 is “inactive”.

Consider `Nc1nc(N)nc(-c2ccccc2)n1`, for which the cytotoxicity call in the assay on HSkMC and in the assay with HepG2 was “inactive” throughout. Besides, the growth inhibition call with S. aureus RN4220 was “inactive”.

`Cc1ccc(S(=O)(=O)N(C)C[C@H]2Oc3ccc(NC(=O)c4ccncc4)cc3C(=O)N([C@@H](C)CO)C[C@H]2C)cc1`: the cytotoxicity call in the assay with HSkMC and in the assay with HepG2 was “inactive” in each case. For the same compound, the growth inhibition call in the assay on S. aureus RN4220 is “inactive”.

In the case of `COc1ccc(S(=O)(=O)N[C@@H]2CC[C@@H](CC(=O)N3CCN(c4ccccc4)CC3)O[C@@H]2CO)cc1`, the cytotoxicity call in the assay on HSkMC and in the assay on HepG2 was “inactive” throughout. Further, the growth inhibition call in the assay on S. aureus RN4220 was “inactive”.

Take `Cc1ccc(S(=O)(=O)N(C)C[C@H]2Oc3ccc(N(C)C)cc3CC(=O)N([C@@H](C)CO)C[C@@H]2C)cc1`: the cytotoxicity call in the assay on HSkMC (human skeletal muscle cells) and with HepG2 was “inactive” throughout. The growth inhibition call in the assay on S. aureus RN4220 is “inactive”.

Regarding `C[C@@H]1CN([C@H](C)CO)S(=O)(=O)c2ccc(-c3cccnc3)cc2O[C@H]1CN(C)C(=O)NC1CCCCC1`, the cytotoxicity call in the assay with HSkMC and with HepG2 was “inactive” in each case. Also, the growth inhibition call with S. aureus RN4220 is “inactive”.
